Results from the RNAGym collection of RNA variant scans (doi:10.7554/elife.90254).
The source gives no read counts; variants with many changes may rest on few reads.

B1: LINE1-mini (parent)
chain: GGCAGAGCUCAACACAGCGUGGCAAAGUGGCUGUGGCUAGACUGCC

Variants of: B1
Test: self-cleavage, relative activity (ratio to wild type); higher = more cleavage; in vitro, sequencing; the parent is a self-cleaving ribozyme

**Q.** Which self-cleavage does the source give for GGCAGAUCUCAAAAUAGCGUGGCAAAGUGGCUGUGGCUAGACUGCC [G7U C13A C15U] here?
**A.** Its self-cleavage is 0.26.

**Q.** With GGCAGAUCUCAACACAGCGUGGCAAAGUGGCUGUGGCUCGAAUGCC [G7U A39C C42A] as the variant, how does the self-cleavage read?
**A.** The self-cleavage was 0.58.

**Q.** For GGCAGAUCUCAUCACAGCGUCCCAAAGUGGCUGUGGCUAGACGGUC [G7U A12U G21C G22C U43G C45U], which self-cleavage is on record?
**A.** Its self-cleavage is 0.05.

**Q.** With GGCAGAUUUCAACACAGCGUGGCAAAGUGGCUGUGCCUAGACUGCC [G7U C8U G36C] as the variant, how does the self-cleavage read?
**A.** Its self-cleavage is 0.42.

**Q.** Which self-cleavage does the source give for GGCAGAUCUCAACACAGCGUGGCGAAGUGGCUGUGGCUAUAAGGCC [G7U A24G G40U C42A U43G] here?
**A.** Its self-cleavage is 0.14.

**Q.** For GGCAGAUCUCAACACAGCGUGGUAAAGUGGGUGUGGCUAGACUGCC [G7U C23U C31G], which self-cleavage is on record?
**A.** Its self-cleavage is 0.34.

**Q.** For GGCAGAUCUGAACCCAGCGUGGCAAAGUGGCUGUGGCUAGACUGCC [G7U C10G A14C], which self-cleavage is on record?
**A.** Its self-cleavage is 0.02.

**Q.** Which self-cleavage does the source give for GGCAGAUCUCAAAACAGCGUGGCCCAGUGGCUGUGGCUAGACUGCC [G7U C13A A24C A25C] here?
**A.** The self-cleavage was 0.06.

**Q.** With GGCAGAUCUCAACACAGCGUGGUAAAGUGGCUGUGGCUGGACUGCC [G7U C23U A39G] as the variant, how does the self-cleavage read?
**A.** Its self-cleavage is 0.04.

**Q.** With GGCAGAUCUCAGCACAGCGUGUCAAAGUGGCUGUGGGUAGACUGAC [G7U A12G G22U C37G C45A] as the variant, how does the self-cleavage read?
**A.** Its self-cleavage is 0.06.

**Q.** With GGCAGAUCUCAACACUGCGUGGCAAAGUGGUUGUGGCUAGACUGCC [G7U A16U C31U] as the variant, how does the self-cleavage read?
**A.** The self-cleavage was 0.09.

**Q.** For GGCAGAUCUCAACCCAGCGUGGCAAAGUGGCUGUGGCUAUAUUGCC [G7U A14C G40U C42U], which self-cleavage is on record?
**A.** The self-cleavage was 0.11.

**Q.** With GGCAGAUCUCAACACAGUGUGGCUAAGUGGCUGUGGCUAGACUGGC [G7U C18U A24U C45G] as the variant, how does the self-cleavage read?
**A.** The self-cleavage was 0.31.

**Q.** With GGCAGAUCUAAACACAACGUGGCAAAGUGGGUGUGGCUAGACUGCC [G7U C10A G17A C31G] as the variant, how does the self-cleavage read?
**A.** The self-cleavage was 0.09.

**Q.** For GGCAGAUCUCAACACAGAGUGACGUAGUGGCUGUUGCUAGACUGCC [G7U C18A G22A A24G A25U G35U], which self-cleavage is on record?
**A.** Its self-cleavage is 0.09.

**Q.** Which self-cleavage does the source give for GGCAGAUCUCAACACAGGGUGGCAGAGUGGCUGUGGCUAGACUGCC [G7U C18G A25G] here?
**A.** Its self-cleavage is 0.21.

**Q.** Which self-cleavage does the source give for GGCAGAUCUCACCACAGCGUGGAAAAGUGGCUUUGGCUAGACUGCU [G7U A12C C23A G33U C46U] here?
**A.** The self-cleavage was 0.

**Q.** Which self-cleavage does the source give for GGCAGAUCUCAUCGCAGCGUGGCAAAGUGGCUGUCGCUAGACUGCC [G7U A12U A14G G35C] here?
**A.** The self-cleavage was 0.02.

**Q.** With GGCAGAUCUCAAAACAGCGUGGCCAAGUGGCUUUGGCUAGACUGCC [G7U C13A A24C G33U] as the variant, how does the self-cleavage read?
**A.** Its self-cleavage is 0.03.

**Q.** Which self-cleavage does the source give for GGCAGAUCUUAACACAGCGCGGGAAAGUGGCUGUGACUAGACUGCC [G7U C10U U20C C23G G36A] here?
**A.** The self-cleavage was 0.

**Q.** For GGCAGAUCUCAACACGGCGUGGCAAAGUUGCUGUGGCUAGACUGCC [G7U A16G G29U], which self-cleavage is on record?
**A.** The self-cleavage was 0.02.

**Q.** For GGCAGAUCUCAACUCAGCGUGGCAAAGUCGCUGUGGCUAGACUGUC [G7U A14U G29C C45U], which self-cleavage is on record?
**A.** The self-cleavage was 0.04.

**Q.** For GGCAGAUCUAAACACACCGUGGCAAAGUGGCUGUGGCUAGACUGCA [G7U C10A G17C C46A], which self-cleavage is on record?
**A.** The self-cleavage was 0.02.

**Q.** For GGCAGAUCUCAACAAAGCGUGGCCAAGUGGCUUUGGCCCGACUGCC [G7U C15A A24C G33U U38C A39C], which self-cleavage is on record?
**A.** Its self-cleavage is 0.05.

**Q.** Which self-cleavage does the source give for GGCAGAUCUCAGCACAGCGUGGCAAAGUGACUGUGGCUAGACUGCC [G7U A12G G30A] here?
**A.** The self-cleavage was 0.03.

**Q.** With GGCAGAUCUCAACACGGCCUGGCAAAGUGGCGGUGGCUAGACUGCC [G7U A16G G19C U32G] as the variant, how does the self-cleavage read?
**A.** Its self-cleavage is 0.02.

**Q.** Which self-cleavage does the source give for GGCAGAUCUCAACACAGCGUGGCACAGUGGCUGUGGCUAGACGGCC [G7U A25C U43G] here?
**A.** Its self-cleavage is 0.07.

**Q.** Which self-cleavage does the source give for GGCAGAUCUCAACACAGAGUGGCAAGGUGGCUGUGGCUAGACUGCU [G7U C18A A26G C46U] here?
**A.** The self-cleavage was 0.03.

**Q.** With GGCAGAUCUCAACACUGCGUGCCAAAGUGGCUGUGGCAAGACUGCC [G7U A16U G22C U38A] as the variant, how does the self-cleavage read?
**A.** The self-cleavage was 0.02.

**Q.** Which self-cleavage does the source give for GGCAGAUCUCAACAAAGAGUGGCAAAGUGGCUGAGGCUAGACUGCC [G7U C15A C18A U34A] here?
**A.** Its self-cleavage is 0.05.

**Q.** With GGCAGAUCUCAACACAGCGUGGCAAAGUGGCUGUGGCUGUACUGCC [G7U A39G G40U] as the variant, how does the self-cleavage read?
**A.** Its self-cleavage is 0.08.

**Q.** Which self-cleavage does the source give for GGCAGAUCUCAACAUGGCGUGGCAAAUUGGCUGUGACUAAACUGCC [G7U C15U A16G G27U G36A G40A] here?
**A.** The self-cleavage was 0.08.

**Q.** With GGCAGAUCUCAGCACAGCGUGGCAAAGUGGCUGUGGCUAGACUCAC [G7U A12G G44C C45A] as the variant, how does the self-cleavage read?
**A.** Its self-cleavage is 0.03.

**Q.** With GGCAGAUCUCAACCCACCGUGGCAAAGUGGCUGUGGCUAGACUGCA [G7U A14C G17C C46A] as the variant, how does the self-cleavage read?
**A.** The self-cleavage was 0.03.

**Q.** Which self-cleavage does the source give for GGCAGAUCUUAACUCAGUGUGGCAAAGUGGCUGUGGCCAGACUGCC [G7U C10U A14U C18U U38C] here?
**A.** The self-cleavage was 0.11.

**Q.** Which self-cleavage does the source give for GGCAGAUCUAAAGACAGCGUGGCAAAGUGGCAGUGGCUAGACUGCC [G7U C10A C13G U32A] here?
**A.** Its self-cleavage is 0.02.

**Q.** With GGCAGAUUUCAACACAGCGUGGCGAAGUGGCUGUGGCUAGACUGCC [G7U C8U A24G] as the variant, how does the self-cleavage read?
**A.** Its self-cleavage is 0.26.

**Q.** With GGCAGAUCUCAACACAGCGUGGCAAAGUGGGGGUGGCUAGACUGCC [G7U C31G U32G] as the variant, how does the self-cleavage read?
**A.** Its self-cleavage is 0.1.

**Q.** For GGCAGAUCUAAUCACAGCGUGGCAAAGUGGCUGUGGCUAGGCUGCC [G7U C10A A12U A41G], which self-cleavage is on record?
**A.** The self-cleavage was 0.04.

**Q.** With GGCAGAUCUCAACACAGAGUGGCAAAGUGGCUGUGGCUAGACUGUC [G7U C18A C45U] as the variant, how does the self-cleavage read?
**A.** Its self-cleavage is 0.01.

**Q.** With GGCAGAUCUGAACACAGCGUCGCAAAGUGGCUGUGGCUAGACGGCC [G7U C10G G21C U43G] as the variant, how does the self-cleavage read?
**A.** Its self-cleavage is 0.

**Q.** For GGCAGAUCUCAACAGAGUGUGGCAAAGUGGCUGUGGCUAUACUGCC [G7U C15G C18U G40U], which self-cleavage is on record?
**A.** Its self-cleavage is 0.12.

**Q.** Which self-cleavage does the source give for GGCAGAUCUCAAUGCAUCCUGGCAAAGUGGCCGUGGCUAGACUGCC [G7U C13U A14G G17U G19C U32C] here?
**A.** Its self-cleavage is 0.13.

**Q.** For GGCAGAUCUCAAGACAGCGUGGCAAAGUGGCAGUGGUUAGACUGCC [G7U C13G U32A C37U], which self-cleavage is on record?
**A.** The self-cleavage was 0.06.

**Q.** With GGCAGAUCUAAACACAGCGUGACACAGUGGCUGUGGCUAGACUGCC [G7U C10A G22A A25C] as the variant, how does the self-cleavage read?
**A.** Its self-cleavage is 0.

**Q.** For GGCAGAUCUCAACACUGCGUUGCAACGUGGCUGUGGCUAUACUGAC [G7U A16U G21U A26C G40U C45A], which self-cleavage is on record?
**A.** The self-cleavage was 0.24.

**Q.** Which self-cleavage does the source give for GGCAGAUCUCAACACAGCGUGGCAAAGUGGAUGUGGCUUGACUGCC [G7U C31A A39U] here?
**A.** The self-cleavage was 0.19.

**Q.** Which self-cleavage does the source give for GGCAGAUCUCAUCGCAGCGUGGCAAAGUUGCUGUGGAUAGACUGCC [G7U A12U A14G G29U C37A] here?
**A.** Its self-cleavage is 0.02.

**Q.** Which self-cleavage does the source give for GGCAGAUCUGCACACAGCGUGGCAAAGUGGCUGUGGCUCGACUGCC [G7U C10G A11C A39C] here?
**A.** The self-cleavage was 0.

**Q.** For GGCAGAUCUCAACAAAGCCUGGCAAAUUGGCUGUGGUUAGACUGAC [G7U C15A G19C G27U C37U C45A], which self-cleavage is on record?
**A.** The self-cleavage was 0.02.

**Q.** Which self-cleavage does the source give for GGCAGAUCUCAACAAAGUGUGGCAAAGUGGCUGUGGCUAUACUGCC [G7U C15A C18U G40U] here?
**A.** Its self-cleavage is 0.18.

**Q.** For GGCAGAUAUCAACACUUCGUGGCAAAGUGGCUGUGGCUAGACUGCC [G7U C8A A16U G17U], which self-cleavage is on record?
**A.** The self-cleavage was 0.75.

**Q.** Which self-cleavage does the source give for GGCAGAUUUCAACACAGCAUGGCAACGUGGCUGUGGUUAGAUUCCC [G7U C8U G19A A26C C37U C42U G44C] here?
**A.** Its self-cleavage is 0.02.

**Q.** For GGCAGAUCUAAACACAGCGUGGCAAAGUGGCUGUGGUGAGACUGCC [G7U C10A C37U U38G], which self-cleavage is on record?
**A.** Its self-cleavage is 0.04.

**Q.** Which self-cleavage does the source give for GGCAGAUCUCAUCACAGCGUGGGAAAGUGGCUGUGGCUAGCCUGCC [G7U A12U C23G A41C] here?
**A.** Its self-cleavage is 0.07.

**Q.** Which self-cleavage does the source give for GGCAGAUCUCAACACAGCGUGGCGCAGUUGCUGUGGCUAGAUUGCC [G7U A24G A25C G29U C42U] here?
**A.** The self-cleavage was 0.03.
